Sequences and labels used below:
B1: chr4:38700566:38700667:+|3pUTR|ENSG00000109787|unk|total|mutant (ssRNA)
RNA: GGGAGUUCUACAGUCCGACGAUCUACAAAGCCAUCUUUACAUGCAUUAAACGAGGGCUACAACAAUAUUGUUUUACAAAUACCCGCACUUUUUUUUCUGUUAUGUACUCCGUGUCCGAGGGUCAAAAUAAUCUUUCUGCUCCGCAACAGAGGAUUGAGCAUCA
B2: chr20:62294722:62294823:+|3pUTR|ENSG00000130703|unk|FALSE|unique (ssRNA)
RNA: GGGAGUUCUACAGUCCGACGAUCCGCACACCGCGUCCGUGUCUCCAGGGGGUUCCUUUCUUCUCACACGUCGCGUGUACCCAUAGCACUCUUGUGUUUCUGUUUUUCCCAGUAUGCAUGUUUAAAAUAGAAGUGACAAGAAUCCAACAGAGGAUUGAGCAUCA
B3: chr21:36416827:36416928:+|3pUTR|ENSG00000159259|unk|total|mutant (ssRNA)
RNA: GGGAGUUCUACAGUCCGACGAUCAACUUUGGAAGGCCGUUGUGUUUGUUUUCUGAUUUUAAAGGUGACGAUGCUUAUUCUUUCCGUAACUAAGUGAAGUGAAAAAGAUGGGUAUCACCCAUCAUCUUCCCACCAGAAGUAACCCAACAGAGGAUUGAGCAUCA
B4: chr6:157944353:157944454:+|3pUTR|ENSG00000130340|unk|total|mutant (ssRNA)
RNA: GGGAGUUCUACAGUCCGACGAUCAGUAAUUCUCCCCACUUGAUUUUUCUUCUAUAAAAUCCCACCGAACAAUGUUUAUGCUACCGCCAUUUAAUAUAUGUACAAAUUGUAAAGAAUAUGUAUAAAUGUUUUACACGAAUGUAACAACAGAGGAUUGAGCAUCA
B5: chr1:40073325:40073426:-|3pUTR|ENSG00000131238|msi1|FALSE|unique (ssRNA)
RNA: GGGAGUUCUACAGUCCGACGAUCGAGGGAAGUAGCACCCAAAUUAAGUUGCUUAAGAGAGGAAAUGUACAUCUUGUAUAACUUAGGGAGCGAAGAAAAUGUAGGCGCGAAAGUGAAAAGUGAGGCAGCUAGUUCUUCCUAUUCCAACAGAGGAUUGAGCAUCA
B6: chr8:65724783:65724899:-|CDS|ENSG00000205268|unk|total|mutant (ssRNA)
RNA: GGGAGUUCUACAGUCCGACGAUCACCGGUGCUCUGAUACCCGCCACAGACAUCAGUCGCCAGAAUGAGUAUCUGUCUUUGUUCCGGUCCCAUUUGGACCGAGGUGAUUUAUGCCCCGAAGACACCAGACACAGACAUUUGGUUCAACAGAGGAUUGAGCAUCA
B7: chr2:128192346:128192447:+|3pUTR|ENSG00000136731|msi1|FALSE|unique (ssRNA)
RNA: GGGAGUUCUACAGUCCGACGAUCAGAAAAUGAUGUUACCACUAAAAUAUUUUCUCCAAGAAGGCAUACUGUAACAGAAAAGAUAGGUAAGAUAUUUUUUUCCCAAGAAGUAAGAAUUGAUUGUGCUGAAUGUUCAAACUCUGGCAACAGAGGAUUGAGCAUCA
B8: chr7:20410991:20411126:+|3pUTR|ENSG00000105855|msi1|total|mutant (ssRNA)
RNA: GGGAGUUCUACAGUCCGACGAUCAAAUUCUGCCUCAAGCAAAGUACCACAUUUUGAAUGUUUUCUCCGAUUUUGAUUGCAAGCCGAUAUCAGCAUUUUUUAAAUGAAAAGCUAUAUUAUCUUCUCCCUUCAAGGCAGCCUAAGCAACAGAGGAUUGAGCAUCA
B9: chr19:21059139:21059240:+|3pUTR|ENSG00000118620|unk|total|mutant (ssRNA)
RNA: GGGAGUUCUACAGUCCGACGAUCGUAAAAAUGAAAAUAUUUAAUCCAAAAUUAAGUCUAUGUAAAUAUCAGAGAAUUUACUGCCGAAAUAUAUAAGGCACUGAGACUUCAGAUAUUAUACUAAAUCAGAGUGCUGAGUACCGACAACAGAGGAUUGAGCAUCA
B10: chr12:39619279:39619382:-|CDS|ENSG00000173208|unk|FALSE|unique (ssRNA)
RNA: GGGAGUUCUACAGUCCGACGAUCCGAGACCAUUUGUGAAAAACCUUCGCCUGGAGUGAAUGCAGAUUUCUUCAAACAGCUACUAGAACUUCGGAAAAUUUUGUUUCCAAAACUUGUGACCACUGAAACAGGGUGGCUCUGCCUCAACAGAGGAUUGAGCAUCA
B11: chr12:6238111:6238124:+|3pUTR|ENSG00000010278|msi1_unk|FALSE|overlapping (ssRNA)
RNA: GGGAGUUCUACAGUCCGACGAUCUGUUUGUUUUUGCUUGUUAUAUUAAGCAGAAAUCCUGCAAUGAAAGGUACUAUAUUUGCUAGACUCUAGACAAGAUAUUGUACAUAAAAGAAUUUUUUUGUCUUUAAAUAGAUACAAAUGCAACAGAGGAUUGAGCAUCA
B12: chr17:74695098:74695251:-|CDS|ENSG00000186074|control|control|control (ssRNA)
RNA: GGGAGUUCUACAGUCCGACGAUCUCUCUGACCUUGGGUGCUGAGGAUCAGGAACCGACCUACUGCAACAUGGGCCACCUCAGUAGCCACCUCCCCGGCAGGGGCCCUGAGGAGCCCACGGAAUACAGCACCAUCAGCAGGCCUCAACAGAGGAUUGAGCAUCA
B13: ENSG00000198589:be:win_9551|3pUTR|ENSG00000198589|bound_else_gene|NA|bound_elsewhere_windowed (ssRNA)
RNA: GGGAGUUCUACAGUCCGACGAUCUGUGUGGAAUUCUGUGAAAAAUAUUUGAGAAAAGGCCUGUAUUGCAUAAAUAAAUUCUUUGUAUGUUGUGAACUUUGAUCUCUAUUUCUCUUGCAACAGACUUCAAGUGGUCCCUCUUUUCAACAGAGGAUUGAGCAUCA
B14: chr1:89933607:89933717:+|CDS|ENSG00000171492|unk|FALSE|bound_elsewhere (ssRNA)
RNA: GGGAGUUCUACAGUCCGACGAUCCAACUUUUGGUUCAAAUAUCCCAAAACAUGCUCAAAAGUAGAACAUUUUGUUUCAAUAUUAGGAAAGUGCUUUGAAUCCCCUUGGACGACAAAAGCGUUGUCUGAGACAGCAUGCGAAGACAACAGAGGAUUGAGCAUCA

The other results are listed elsewhere or left out.

In this experiment the target is MSI1 full-length (mouse, UniProt Q61474 1-362). Description: nsRBNS (natural sequence RNA bind-n-seq); RBNS binding buffer (assumed for nsRBNS): 25 mM Tris pH 7.5, 150 mM KCl, 3 mM MgCl2, 0.01% Triton X-100, 500 ug/ml BSA, 20 U/ml SUPERase-In, 4 C; UNK is unkempt and MSI1 is Musashi-1; names of the RNAs are library labels; protein concentration not given here; high values mean tight binding.
UniProt Q61474, sequence (Q61474 whole entry): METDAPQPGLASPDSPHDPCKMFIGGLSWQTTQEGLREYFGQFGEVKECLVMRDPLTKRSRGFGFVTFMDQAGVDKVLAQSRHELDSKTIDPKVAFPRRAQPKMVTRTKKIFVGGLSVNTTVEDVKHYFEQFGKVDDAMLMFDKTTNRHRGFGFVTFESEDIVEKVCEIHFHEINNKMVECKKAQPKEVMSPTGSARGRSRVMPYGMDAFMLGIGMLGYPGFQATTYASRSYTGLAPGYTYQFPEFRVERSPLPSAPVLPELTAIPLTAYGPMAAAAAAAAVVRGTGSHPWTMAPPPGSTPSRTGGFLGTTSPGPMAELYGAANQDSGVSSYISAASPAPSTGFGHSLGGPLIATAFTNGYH
B1: the binding signal was determined as 0.397 enrichment R.
The value for B2 was 0.55 enrichment R; that for B3 was 0.171 enrichment R.
In the case of B4 it was 0.968 enrichment R; in that of B5, 0.871 enrichment R.
The value for B6 was 0.342 enrichment R; that for B7 was 0.593 enrichment R; that for B8 was 0.319 enrichment R.
B9 displayed a binding signal of 4.16 enrichment R.
The value for B10 was 0.308 enrichment R; that for B11 was 1.03 enrichment R.
In the case of B12, the binding signal is 0.377 enrichment R.
As for B13, the binding signal was 0.423 enrichment R.
In the case of B14 it was 1.32 enrichment R.

Values taken from paper PMC12136788.
